# The list shows a part of the results.
# Experiments:
# Assay in all cases: glycan array binding signal (z-score within array); higher = stronger binding
# Conditions in all cases: glycan notation: IUPAC condensed, linker removed
# [1] = biological target: Neu5Ac(a2-3)Gal(b1-4)[Fuc(a1-3)]GlcNAc(b1-3)Gal(b1-4)GlcNAc
# Summary of the method: (§1)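 Glycan array data came from 3228 arrays in the Consortium for Functional Glycomics database, and only arrays with an available protein sequence were kept. Glycan names were put into IUPAC-condensed notation, and columns mapping to the same glycan were averaged. The binding signal is a within-array Z-score, averaged across arrays of one protein sequence run at different concentrations or buffers and across linkers. A negative Z-score can be read as non-binding.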
# [2] = biological target: Neu5Ac(a2-3)Gal(b1-4)[Fuc(a1-3)]GlcNAc(b1-3)Gal(b1-4)[Fuc(a1-3)]GlcNAc(b1-3)Gal(b1-4)[Fuc(a1-3)]GlcNAc
# Summary of the method: as §1
# [3] = biological target: Neu5Ac(a2-3)Gal(b1-4)[Fuc(a1-3)]GlcNAc(b1-3)GalNAc
# Summary of the method: as §1
# [4] = biological target: Neu5Ac(a2-3)Gal(b1-4)[Fuc(a1-3)]GlcNAc(b1-6)[Gal(b1-3)]GalNAc
# Summary of the method: as §1
# [5] = biological target: Neu5Ac(a2-3)Gal(b1-4)[Fuc(a1-3)]GlcNAc(b1-6)[Neu5Ac(a2-3)Gal(b1-3)]GalNAc
# Summary of the method: as §1
# [6] = biological target: Neu5Ac(a2-3)Gal(b1-4)[Fuc(a1-3)]GlcNAc6S
# Summary of the method: as §1
# [7] = biological target: Neu5Ac(a2-3)Gal6S(b1-4)GlcNAc
# Summary of the method: as §1
# [8] = biological target: Neu5Ac(a2-3)Gal6S(b1-4)[Fuc(a1-3)]GlcNAc
# Summary of the method: as §1
# Neu5Ac(a2-3)GalNAc = biological target: Neu5Ac(a2-3)GalNAc
# Summary of the method: as §1
# [9] = biological target: Neu5Ac(a2-3)GalNAc(b1-4)GlcNAc
# Summary of the method: as §1
# [10] = biological target: Neu5Ac(a2-3)[GalNAc(b1-4)]Gal(b1-4)Glc
# Summary of the method: as §1
# [11] = biological target: Neu5Ac(a2-3)[GalNAc(b1-4)]Gal(b1-4)GlcNAc
# Summary of the method: as §1
# [12] = biological target: Neu5Ac(a2-3)[GalNAc(b1-4)]Gal(b1-4)GlcNAc(b1-3)GalNAc
# Summary of the method: as §1
# [13] = biological target: Neu5Ac(a2-3)[Neu5Ac(a2-6)]GalNAc
# Summary of the method: as §1
# Neu5Ac(a2-6)Gal = biological target: Neu5Ac(a2-6)Gal
# Summary of the method: as §1
# Neu5Ac(a2-6)Gal(b1-4)Glc = biological target: Neu5Ac(a2-6)Gal(b1-4)Glc
# Summary of the method: as §1
# [14] = biological target: Neu5Ac(a2-6)Gal(b1-4)GlcNAc
# Summary of the method: as §1
# [15] = biological target: Neu5Ac(a2-6)Gal(b1-4)GlcNAc(b1-2)Man(a1-3)Man(b1-4)GlcNAc(b1-4)GlcNAc
# Summary of the method: as §1
# [16] = biological target: Neu5Ac(a2-6)Gal(b1-4)GlcNAc(b1-2)Man(a1-3)[Gal(b1-4)GlcNAc(b1-2)Man(a1-6)]Man(b1-4)GlcNAc(b1-4)GlcNAc
# Summary of the method: as §1
# [17] = biological target: Neu5Ac(a2-6)Gal(b1-4)GlcNAc(b1-2)Man(a1-3)[GlcNAc(b1-2)Man(a1-6)]Man(b1-4)GlcNAc(b1-4)GlcNAc
# Summary of the method: as §1
# [18] = biological target: Neu5Ac(a2-6)Gal(b1-4)GlcNAc(b1-2)Man(a1-3)[GlcNAc(b1-2)Man(b1-4)GlcNAc(b1-2)Man(a1-6)]Man(b1-4)GlcNAc(b1-4)GlcNAc
# Summary of the method: as §1
# [19] = biological target: Neu5Ac(a2-6)Gal(b1-4)GlcNAc(b1-2)Man(a1-3)[Man(a1-6)]Man(b1-4)GlcNAc(b1-4)GlcNAc
# Summary of the method: as §1
# [20] = biological target: Neu5Ac(a2-6)Gal(b1-4)GlcNAc(b1-2)Man(a1-3)[Neu5Ac(a2-6)Gal(b1-4)GlcNAc(b1-2)Man(a1-6)]Man(b1-4)GlcNAc(b1-4)GlcNAc
# Summary of the method: as §1
# [21] = biological target: Neu5Ac(a2-6)Gal(b1-4)GlcNAc(b1-2)Man(a1-6)Man(b1-4)GlcNAc(b1-4)GlcNAc
# Summary of the method: as §1
# [22] = biological target: Neu5Ac(a2-6)Gal(b1-4)GlcNAc(b1-2)Man(a1-6)[Gal(b1-4)GlcNAc(b1-2)Man(a1-3)]Man(b1-4)GlcNAc(b1-4)GlcNAc
# Summary of the method: as §1
# [23] = biological target: Neu5Ac(a2-6)Gal(b1-4)GlcNAc(b1-2)Man(a1-6)[GlcNAc(b1-2)Man(a1-3)]Man(b1-4)GlcNAc(b1-4)GlcNAc
# Summary of the method: as §1
# [24] = biological target: Neu5Ac(a2-6)Gal(b1-4)GlcNAc(b1-2)Man(a1-6)[Man(a1-3)]Man(b1-4)GlcNAc(b1-4)GlcNAc
# Summary of the method: as §1
# [25] = biological target: Neu5Ac(a2-6)Gal(b1-4)GlcNAc(b1-3)Gal(b1-3)GlcNAc
# Summary of the method: as §1
# [26] = biological target: Neu5Ac(a2-6)Gal(b1-4)GlcNAc(b1-3)Gal(b1-4)GlcNAc
# Summary of the method: as §1
binder,measurement,setting,value
"CLEC-1 (Homo sapiens), Q9NZH3 (protein) MQAKYSSTRDMLDDDGDTTMSLHSQASATTRHPEPRRTEHRAPSSTWRPVALTLLTLCLVLLIGLAAWGLLFFQYYQLSNTGQDTISQMEERLGNTSQELQSLQVQNIKLAGSLQHVAEKLCRELYNKAGAHRCSPCTEQWKWHGDNCYQFYKDSKSWEDCKYFCLSENSTMLKINKQEDLEFAASQSYSEFFYSYWTGLLRPDSGKAWLWMDGTPFTSELFHIIIDVTSPRSRDCVAILNGMIFSKDCKELKRCVCERRAGMVKPESLHVPPETLGEGD",glycan array binding signal (z-score),[1],-0.048
same,glycan array binding signal (z-score),[2],-0.397
same,glycan array binding signal (z-score),[3],2.82
same,glycan array binding signal (z-score),[4],0.591
same,glycan array binding signal (z-score),[5],-0.268
same,glycan array binding signal (z-score),[6],-0.409
same,glycan array binding signal (z-score),[7],-0.086
same,glycan array binding signal (z-score),[8],-0.34
same,glycan array binding signal (z-score),Neu5Ac(a2-3)GalNAc,-0.178
same,glycan array binding signal (z-score),[9],-0.187
same,glycan array binding signal (z-score),[10],0.478
same,glycan array binding signal (z-score),[11],0.582
same,glycan array binding signal (z-score),[12],0.358
same,glycan array binding signal (z-score),[13],-0.331
same,glycan array binding signal (z-score),Neu5Ac(a2-6)Gal,-0.089
same,glycan array binding signal (z-score),Neu5Ac(a2-6)Gal(b1-4)Glc,-0.117
same,glycan array binding signal (z-score),[14],0.663
same,glycan array binding signal (z-score),[15],0.029
same,glycan array binding signal (z-score),[16],0.082
same,glycan array binding signal (z-score),[17],-0.072
same,glycan array binding signal (z-score),[18],-0.292
same,glycan array binding signal (z-score),[19],-0.19
same,glycan array binding signal (z-score),[20],-0.067
same,glycan array binding signal (z-score),[21],0.031
same,glycan array binding signal (z-score),[22],-0.53
same,glycan array binding signal (z-score),[23],-0.401
same,glycan array binding signal (z-score),[24],-0.15
same,glycan array binding signal (z-score),[25],-0.31
same,glycan array binding signal (z-score),[26],-0.468

# From the supplement of paper PMC8728848
